Measured values from PubChem BioAssay AID686979 (National Center for Advancing Translational Sciences (NCATS), 2013).
In all, about 420,000 compounds went through this assay and about 50,000 (12%) were called active. The inconclusive results got no clear call from the source; some entries with a clear call stand among them for comparison. The call rests on the fitted dose curve; in most records, active means well fitted inhibition curve with a large enough effect; inconclusive means small, poorly fitted or top-dose-only effect; inactive means flat fitted curve, though single readings scatter. No potency is given beside an inconclusive call; the fits are too rough.

Test: qHTS for Inhibitors of human tyrosyl-DNA phosphodiesterase 1 (TDP1): qHTS in cells in presence of CPT; further: nearly all actives have a fitted effect of over 55% in size
Conditions: chicken DT40 Tdp1-/-;hTDP1 cells + 20 nM CPT, ATP luminescence, 48 h; activity change, negative = growth inhibition: at 46.2 µM (top of the series)
Procedure, shortened: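 Chicken DT40 Tdp1-/- cells complemented with human TDP1, 400 cells/well, exposed to compounds plus 20 nM camptothecin for at least 48 h at 37 C; viability read as ATP content by CellTiter-Glo luminescence.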
On the % scale 0 is the no-effect control and ±100 the full control effect; potency means the concentration at half of the fitted maximal effect; tags describe the fitted curve by direction and shape.

Structure (SMILES)	activity change, negative = growth inhibition	Potency
C[C@@H]1Nc2ccc(Cl)cc2S(=O)(=O)N1	inactive: 0.809%	–
Cc1ccccc1Cn1c(CN2CCC(C(=O)NCc3ccc(Cl)cc3)CC2)cc2ccccc21	–	inconclusive [inhibitor, single point]
CCN(CC)CCCN(Cc1cc2cc(OC)ccc2[nH]c1=O)C(=O)Nc1ccccc1	–	inconclusive [inhibitor, single point]
O=C(O)C1CCN(c2ccc([N+](=O)[O-])cc2[N+](=O)[O-])CC1	inconclusive: -35.2% [inhibitor]	–
O=C(NCCc1ccccc1Cl)C1CCC(=O)N(C2CCCCCC2)C1 (centres undefined)	–	inconclusive [inhibitor, full curve, poor fit]
COc1ccccc1C(=O)N/N=C(\C)c1ccc(NC(=O)C2CC2)cc1	inactive: 4.53%	–
Cc1cc(C)c(OCC(=O)N(Cc2ccc(N(C)C)cc2)Cc2ccco2)c(C)c1	–	active: 11.6 µM
CN1CCCN(C(=O)c2cccc3ccccc23)CC1	inactive: 1.91%	–
O=C(CCS(=O)(=O)Cc1ccccc1)Nc1nnc(C(F)(F)F)s1	–	inconclusive [inhibitor, single point]
COc1ccc(CCNC(=O)c2ccc(-n3c(C)cc4c3CCC(C)C4)cc2)cc1OC (centres undefined)	–	inconclusive [inhibitor, single point]
Cc1cc(=O)n(C(C)(C)C)c(=O)n1Cc1ccccc1	inactive: -15.4%	–
COCCN(CC(=O)Nc1cccc(C)c1C)C(=O)c1oc2c(Cl)cccc2c1C	–	inconclusive [inhibitor, single point]
Cc1cc(C)cc(NC(=O)COc2cccc3c(=O)n(C)ccc23)c1	–	inconclusive [inhibitor, single point]
O=C(NCc1cccc(Cl)c1)C1CCN(S(=O)(=O)c2ccc(F)cc2)CC1	inactive: -12.5%	–
CC(=O)Nc1ccc(S(=O)(=O)Oc2cccc(N3C(=O)C4CC=CCC4C3=O)c2)cc1 (centres undefined)	–	inconclusive [inhibitor, single point]
COc1cccc(C(=O)NC2CCCc3ccccc32)c1OC (centres undefined)	–	inconclusive [inhibitor, single point]
O=C1C=CC(=O)N1c1ccccc1N1C(=O)C=CC1=O	–	active: 0.92 µM
CCN(CC)C(=O)CSc1nc(O)c(Cc2ccccc2)c(=O)n1-c1ccccc1	inactive: -28.4%	–
Cc1ccc(NC(=S)NC2CCN(Cc3ccccc3)CC2)cc1	–	inconclusive [inhibitor, single point]
O=C(NC(=S)Nc1ccc(Br)cc1F)C1CCCCC1	inactive: -24.6%	–
CCc1cccc(C)c1NC(=S)NCC(c1cccnc1)N1CCOCC1 (centres undefined)	inactive: -2.99%	–
CCOc1ccc(NS(=O)(=O)c2ccc3c(c2)NC(=O)CCS3)cc1	–	inconclusive [inhibitor, single point]
COc1ccc2oc(-c3ccco3)cc(=O)c2c1	–	inconclusive [inhibitor, single point]
COC(=O)c1ccccc1NC(=O)Cn1c(=O)n(CCC(=O)NCc2ccc3c(c2)OCO3)c(=O)c2ccccc21	–	inconclusive [inhibitor, single point]
COc1ccc2cc3cc(C(=O)Nc4ccc5c(c4)OCCO5)oc3nc2c1	–	inconclusive [inhibitor, single point]

Structure (SMILES)	activity change, negative = growth inhibition	Potency
CC[n+]1c(/C=C/N(C)c2ccccc2)n(-c2ccccc2)c2ccc(-c3nc4ccccc4s3)cc21	–	active: 0.82 µM
COc1ccc2c(c1)c[n+](C)c1c3cc(OC)c(OC)cc3ccc21	–	active: 1.16 µM
Cn1c(Cc2ccccc2)nnc1SCC(=O)N1CCCCC1	inactive: -11.3%	–
COc1ccc(/C=C/C(=O)Nc2ccc(NC(C)=O)cc2)cc1S(=O)(=O)N1CCOCC1	–	inconclusive [inhibitor, single point]
COc1ccc(-n2c(-c3cccc(F)c3)nc3c(cnn3-c3ccc(C)cc3)c2=O)cc1	–	active: 18.4 µM
Cc1ccc(S(=O)(=O)N2CCCCC2)cc1C(=O)N1CCN(c2ccccn2)CC1	inactive: -23.9%	–
Cc1ccc(-c2csc(-c3c(N)c(C(=O)c4ccc5c(c4)OCO5)n4ccccc34)n2)cc1	inconclusive: -32.6% [inhibitor]	–
Cc1ccccc1NC(=O)CCS(=O)(=O)c1ccc(Br)cc1	inactive: -1.28%	–
CCCc1cc(CNC(=O)C2CCC(=O)N(Cc3ccccc3F)C2)on1 (centres undefined)	inactive: -0.182%	–
CN1C(=O)CC(N2CCN(c3ccc(Cl)c(Cl)c3)CC2)C1=O (centres undefined)	inconclusive: -31.8% [inhibitor]	–
CCOC(=O)c1cnc2ccc(OC)cc2c1NCc1ccccc1	–	inconclusive [inhibitor, single point]
COc1ccc(NC(=O)COc2ccc(/C=N/NC(=O)c3cccnc3)cc2OC)cc1	–	active: 18.4 µM
CCNS(=O)(=O)c1cc(-c2nnc(OC)c3ccccc23)ccc1C	inconclusive: -31% [inhibitor]	–
ON=C(CCc1ccccc1)c1ccccc1	inconclusive: -31% [inhibitor]	–
CCC(=O)N1CCN(c2ccc(NC(=O)c3ccc(C#N)cc3F)cc2Cl)CC1	–	inconclusive [inhibitor, single point]
CCCn1c(N)c(C(=O)CSc2nnc3n2CCCCC3)c(=O)[nH]c1=O	inactive: -2.04%	–
CCn1c(CNC(=O)c2cccs2)n[nH]c1=S	inactive: 15%	–
CC(=O)c1ccc(N2CCN(C(=O)C3CCN(S(=O)(=O)Cc4ccccc4)CC3)CC2)cc1	inactive: -23.6%	–
CCCN(CCC)CCCNC(=O)C1c2cc(OC)c(OC)cc2C(=O)N(C)C1c1cccnc1 (centres undefined)	inactive: 0.202%	–
COc1cccc(N2CCN(C(=O)c3ccc(CS(=O)Cc4ccc(Cl)cc4)o3)CC2)c1 (centres undefined)	–	inconclusive [inhibitor, single point]
Cc1ccc2c(Cl)cc(Cl)c(OCC(=O)NC3CCS(=O)(=O)C3)c2n1 (centres undefined)	–	inconclusive [inhibitor, single point]
CC1=C(C(=O)OC2CCCC2)C(c2c(F)cccc2Cl)CC(=O)N1 (centres undefined)	–	inconclusive [inhibitor, single point]
Cc1ccc(-c2cn3nc(N4CCCC(C(=O)NCc5ccccc5F)C4)sc3n2)cc1 (centres undefined)	–	inconclusive [inhibitor, single point]
COc1ccccc1CN(C)C(=O)c1ccc(COc2ccccc2)cc1	–	active: 16.4 µM
CCC(C)(C)n1nnnc1C(c1cc2cc(OC)c(OC)cc2[nH]c1=O)N1CCc2ccccc21 (centres undefined)	–	active: 20 µM

Structure (SMILES)	activity change, negative = growth inhibition	Potency
COc1ccc(NC(=S)N/N=C2/CCCc3c(C)cc(C)cc32)cc1	inactive: 0.541%	–
CCCOc1ccc(/C=N/Nc2cc(N3CCOCC3)ncn2)c(O)c1	–	inconclusive [inhibitor, single point]
Cc1ccc(-n2nnnc2SCC(=O)Nc2ccccc2N2CCCCC2)cc1C	–	inconclusive [inhibitor, single point]
CCc1ccc(-c2cc(C(=O)NN3CCOCC3)c3ccccc3n2)cc1	–	active: 8.2 µM
COC(=O)c1cccc2c1-c1ccccc1/C2=N/O	–	active: 16.4 µM
COc1cccc(N2C(=O)C(CC(=O)Nc3cccc(F)c3)N(C3CCCC3)C2=O)c1 (centres undefined)	inactive: -22.1%	–
COc1cccc(/C=c2\s/c(=C/C(=O)c3ccc(C)cc3)[nH]c2=O)c1OC	–	inconclusive [inhibitor, single point]
FC(F)Sc1nc2ccccc2[nH]1	inactive: 2.21%	–
Cc1ccc(OCC(=O)N/N=C\c2c(C)[nH]n(-c3ccccc3)c2=O)c([N+](=O)[O-])c1	–	active: 3.66 µM
COC(=O)C1=CN(Cc2ccc(OC)c(OC)c2)C=C(C(=O)OC)C1c1ccc(F)cc1	–	inconclusive [inhibitor, single point]
Cc1nn(Cc2c(F)c(F)c(F)c(F)c2F)c(C)c1NC(=O)c1nn(C)c(C)c1Br	–	inconclusive [inhibitor, single point]
CC(C)(C)OC(=O)C1=CC[C@@H](c2ccc(Cl)c(Cl)c2)N(S(=O)(=O)c2ccc(F)cc2)[C@H]1c1cccc(F)c1	–	inconclusive [inhibitor, partial curve]
CCS(=O)(=O)c1cc([N+](=O)[O-])c(Sc2ccccc2N)s1	–	inconclusive [inhibitor, single point]
COc1cc(OC)cc(C(=O)NNC(=O)CNC(=O)c2ccc(Br)o2)c1	inactive: 21.2%	–
S=c1nc(-c2csc3c2CCCC3)[nH][nH]1	–	active: 16.4 µM
CCOC(=O)N1CCN(S(=O)(=O)c2ccc(Br)s2)CC1	–	inconclusive [inhibitor, partial curve]
COc1ccc2nc(/N=C(\N)NC(=O)Nc3ccccc3)nc(C)c2c1	–	inconclusive [inhibitor, single point]
CCS(=O)(=O)CCSC(=N)N	–	inconclusive [inhibitor, single point]
Oc1ccc(Cl)cc1-c1cc(-c2cccc(Br)c2)n[nH]1	–	active: 16.4 µM
Cc1ccc(NC(=O)c2nc[nH]c2C(=O)NCCCCNC(=O)c2[nH]cnc2C(=O)Nc2ccc(C)cc2)cc1	–	inconclusive [inhibitor, partial curve, poor fit]
COc1ccc(C(O)(c2ccccc2)C(C(=O)O)c2ccccc2)cc1 (centres undefined)	inactive: 1.37%	–
O=C(c1cc(COc2cccc3cccnc23)on1)N1CCC[C@H]1CO	inactive: -3.39%	–
Cc1nc2ccn(Cc3ccco3)c(=O)c2cc1C(=O)NCc1ccc(Cl)cc1	–	inconclusive [inhibitor, single point]
Cc1cccc2c1-c1sc(C(=O)NCCCN3CCc4ccccc4C3)cc1CO2	–	inconclusive [inhibitor, single point]
